Laboratory results from PMC6919601, “Identification of Plasmodium dipeptidyl aminopeptidase allosteric inhibitors by high throughput screening” (PLoS ONE, 2019).
The whole screen tested about 110,000 compounds, of which about 230 (0.21%) showed an effect of 50% or more. The list shows a part of the results.

Target: DPAP1 (Plasmodium falciparum, UniProt Q8IIJ9)
Assay: primary screen, percent inhibition; read by cleavage of a fluorogenic dipeptide substrate; higher = more effect of the substance
Set-up: species or system P. falciparum D10 trophozoite lysates; single well
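Note: 30 min substrate incubation versus DMSO and 10 µM JCP410 controls.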

DPAP1, sequence (Q8IIJ9 whole entry, looked up): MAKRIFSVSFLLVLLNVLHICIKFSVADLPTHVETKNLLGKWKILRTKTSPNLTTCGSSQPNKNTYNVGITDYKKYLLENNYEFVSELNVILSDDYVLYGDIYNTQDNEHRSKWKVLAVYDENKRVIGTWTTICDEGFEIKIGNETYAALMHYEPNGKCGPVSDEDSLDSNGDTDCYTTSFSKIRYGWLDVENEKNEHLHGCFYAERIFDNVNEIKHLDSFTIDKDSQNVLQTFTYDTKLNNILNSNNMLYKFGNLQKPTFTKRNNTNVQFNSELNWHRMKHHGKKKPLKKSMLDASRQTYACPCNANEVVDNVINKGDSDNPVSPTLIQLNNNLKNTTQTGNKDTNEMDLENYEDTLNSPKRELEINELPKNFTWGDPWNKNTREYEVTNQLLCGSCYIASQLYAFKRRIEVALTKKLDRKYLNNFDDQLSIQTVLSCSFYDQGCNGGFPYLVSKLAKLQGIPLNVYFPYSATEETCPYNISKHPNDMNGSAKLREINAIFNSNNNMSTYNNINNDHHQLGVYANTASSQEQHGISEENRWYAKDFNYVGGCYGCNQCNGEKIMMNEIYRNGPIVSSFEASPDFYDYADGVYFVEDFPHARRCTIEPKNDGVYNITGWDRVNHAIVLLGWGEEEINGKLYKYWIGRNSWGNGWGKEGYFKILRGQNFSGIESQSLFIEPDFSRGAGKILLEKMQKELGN

Row | Structure (SMILES) | % Inhibition @ 10 uM [%]
1 | COc1cccc(/C=C(\C#N)c2nc3ccccc3[nH]2)c1O | 5.7
2 | COc1ccc(Cc2nnc(NC(=O)Cc3cccs3)s2)cc1OC | -2.92
3 | Cc1c2ccccc2n2cc(-c3ccccc3)nc(C(C)C)c12 | -2.2
4 | O=C(COc1ccccc1Cl)NCCC1=CCCCC1 | 3.79
5 | CCc1cc2c(Nc3ccncc3)ncnc2s1 | 3
6 | Cc1ccc(-n2nnc3c(=O)n(CC(=O)NCc4ccc(F)cc4)cnc32)cc1 | -4.17
7 | CC(C)C[C@H](NS(=O)(=O)c1cccc(C(F)(F)F)c1)C(=O)NCC#N | -14
8 | CC(CC(NC(=O)OCc1ccccc1)C(=O)NCC#N)c1ccccn1 (stereo not drawn) | -3.48
9 | COc1ccc(C2(C(=O)NCc3ccco3)CCOCC2)cc1 | -4.85
10 | COC(=O)c1nc2nc(C)cc(C)n2n1 | -3.26
11 | CC(C)(O)C#Cc1ccc(C(=O)NCc2ccccc2F)cc1 | -4.49
12 | CC(C)CC(NC(=O)c1cccc(NC(=O)NC2CCN(Cc3ccccc3)CC2)c1)C(=O)NCC#N (stereo not drawn) | 3.66
13 | COc1ccc(CNCc2c(C(=O)O)n(Cc3ccc(C)cc3)c3cc(C)ccc23)c(OC)c1 | 10.2
14 | COc1cc(OC)c(OC)cc1CN1CCN(C(=O)Cc2ccccc2)CC1 | -1.55
15 | COc1ccc(C2c3c(oc4ccccc4c3=O)C(=O)N2c2nc(C)c(C)s2)cc1OC (stereo not drawn) | 0.161
16 | CC(C)CNC(=O)c1ccccc1NS(=O)(=O)c1ccccc1 | -2.28
17 | CCOc1ccc(CN2CCC3(C=Cc4ccccc43)CC2)cc1 | -1.64
18 | COCCNC(=O)CCc1c(C)nc2c(c1C)c(=O)n(C)c(=O)n2C | -4.97
19 | Brc1csc(CN2CCN(c3ccccn3)CC2)c1 | -0.0404
20 | COc1ccc2c(c1)CCc1c(C(=O)NCCc3ccccc3)noc1-2 | -0.591
21 | CC1CCc2nc(NC(=O)COc3ccccc3Cl)sc2C1 (stereo not drawn) | -3.77
22 | Cc1ccc(C)c(NC(=O)CN(c2cccc(C(F)(F)F)c2)S(C)(=O)=O)c1 | 1.59
23 | O=C(O)c1ccc(S(=O)(=O)c2ccc(S(=O)(=O)c3ccc(C(=O)O)c(C(=O)O)c3)cc2)cc1 | -1.74
24 | Cc1ccc(CNC(=O)CN(C)S(=O)(=O)c2cc(Br)cnc2N)cc1 | 1.68
25 | CSc1nc(-c2ccccc2)nc2c1Cc1ccccc1O2 | -8.42
26 | CCOC(=O)c1ccc(-n2cc3c(=O)n(C)c(=O)n(C)c3c2)cc1 | 2.95

Row | Structure (SMILES) | % Inhibition @ 10 uM [%]
27 | O=C(CCC(=O)N1Cc2ccccc2Oc2ncccc21)NCCCc1ccccc1 | -4.51
28 | CCC1CCc2nc3sc(C(=O)NC(C)c4ccccc4)c(N)c3cc2C1 (stereo not drawn) | -1.47
29 | COC(=O)c1cnn2c(C(F)(F)F)cc(C)nc12 | 2.9
30 | Cc1ccc2nc(O)c3cc(C(=O)NCC4COc5ccccc5O4)sc3c2c1 (stereo not drawn) | 1.72
31 | O=C(NCc1cccs1)C1CCN(S(=O)(=O)c2ccc3[nH]c(-c4ccccc4)nc3c2)CC1 | 9.84
32 | COc1ccc(Br)cc1/C=C/C(=O)NCC(=O)O | -0.406
33 | CCN(Cc1ccccc1)Cc1c(O)ccc2ccccc12 | -3.15
34 | CCNC(=O)N(Cc1nc(-c2ccc(Cl)cc2)no1)C1CCCCC1 | 0.00706
35 | COc1ccc2[nH]cc(CCNC(=O)c3ccccc3)c2c1 | 3.34
36 | C=C(C)[C@@H]1CC=C(CN(C)CC(O)c2ccccc2)CC1 (stereo partly drawn) | 1.57
37 | Cc1ccc(CS(=O)Cc2ccc(C(=O)NCc3cccc(Cl)c3)o2)cc1 (stereo not drawn) | -3.35
38 | O=C(NCc1ccccc1)c1ccc2oc(=O)c(S(=O)(=O)c3ccccc3)cc2c1 | 2.12
39 | CCOc1ccc(C(C)=O)cc1CN(CC)CC | 11.4
40 | Cc1nc(O)c2sc3nc4c(cc3c2n1)COC(C)(C)C4 | 18.5
41 | CCCOc1ccc(C(=O)Nc2ccc(NC(C)=O)cc2)cc1 | 3.53
42 | CCCc1[nH]nc2c1C(c1ccc(OC(C)C)c(OCC)c1)C(C#N)=C(N)O2 (stereo not drawn) | -8.3
43 | CCCCNC(=O)c1ccc(CNS(=O)(=O)c2ccc(C)cc2)cc1 | 2.35
44 | COC(=O)c1nnn(-c2nonc2N)c1CSc1ncccn1 | -0.0735
45 | c1ccc(-c2nnc(-c3ccccn3)nn2)nc1 | -2.65
46 | CSc1nc2ccccc2n1CC(=O)NC(c1ccccc1)c1ccccc1 | 1.13
47 | NC(=O)c1c(NC(=O)c2cccs2)sc2c1CCCCCC2 | 7.09
48 | CSc1nc(N)c2c3c(sc2n1)CCCCC3 | 2.62
49 | CC1CCN(CCCNC(=O)CCCc2nnc3n(C)c(=O)c4sccc4n23)CC1 | 1.13
50 | CCCCOC(=O)CNc1nnc(S)nc1O | -7.52
51 | CCC1CCCCN1C(=O)c1cnn(-c2ccc(F)cc2)c1-n1cccc1 (stereo not drawn) | -4.81
52 | CC(C)CC1=NN2C(=O)CC(=O)N=C2S1 | 3.82

Row | Structure (SMILES) | % Inhibition @ 10 uM [%]
53 | CN(C)c1cc(NC(=O)C23CC4CC(CC(C4)C2)C3)c2ccccc2n1 | 16.5
54 | COc1ccc(S(=O)(=O)N(CCc2ccccc2)CC(=O)O)cc1OC | -5.5
55 | O=C(O)c1ccccc1Sc1c(O)cc(-c2ccccc2)n(-c2ccccc2)c1=O | 3.05
56 | COc1ccc2nc3sc(C(=O)N4CCOCC4)cc3cc2c1 | 89.7
57 | CCC(Sc1nc2cccnc2[nH]1)C(=O)NCc1ccc(C)cc1 (stereo not drawn) | -1.68
58 | CCCCNC(=O)c1nc(C)c(C)nc1C(=O)Nc1ccccc1F | -7.3
59 | COCCCNCc1c(C(=O)O)n(Cc2ccc(F)cc2Cl)c2cc(OC)ccc12 | 0.711
60 | CCCN(Cc1ccoc1)CC1CC1 | -5.65
61 | Cc1ccc(S(=O)(=O)NCC23C=CC(O2)C2C(=O)N(Cc4ccccc4)C(=O)C23)cc1 (stereo not drawn) | 1.7
62 | CCN1CCC(Nc2cccc(SC)c2)CC1 | -3.6
63 | CCCC1=C(C(=O)OCC)C(c2cc(Br)cs2)C(C#N)=C(N)O1 (stereo not drawn) | 6.18
64 | Cc1ccc(OCCCCCn2ccnc2)cc1C | -2.78
65 | CCN1CCc2c(sc3nc(S)nc(N)c23)C1 | 42.8
66 | COc1ccc2cc3c(N)nn(C(=O)c4ccc(C(C)(C)C)cc4)c3nc2c1 | 14.2
67 | O=C(Nc1cccnc1Cl)c1cc2n(n1)C(C(F)(F)F)CC(c1ccc3c(c1)OCO3)N2 (stereo not drawn) | 4.77
68 | O=C(CSCc1c(Cl)cccc1Cl)Nc1ccc2c(c1)C(=O)N(CC1CCCO1)C2=O (stereo not drawn) | 2.18
69 | CCOCCCNC(=O)c1ccc2nc(-c3ccco3)c(-c3ccco3)nc2c1 | 4.85
70 | COc1cc(C2C(C#N)=C(N)Oc3[nH]nc(C)c32)ccc1OC(C)C (stereo not drawn) | -2.46
71 | COc1ccc(-n2c3c(c(=O)[nH]c2=O)C(C(F)(F)F)(C(F)(F)F)NC(Cc2ccccc2)=N3)cc1 | 1.72
72 | O=C(Cn1cnc2ccccc2c1=O)Nc1nc2c(s1)CCCC2 | 3.66
73 | Cc1cc(/C=C2\NC(=O)NC2=O)c(C)n1-c1cccc(C(=O)O)c1 | -7.62
74 | O=C(CCn1nc(-c2ccc(Cl)cc2)ccc1=O)N1CCOCC1 | 1.41
75 | O=C(O)CSc1nnc(COc2cccc3cccnc23)n1-c1cccc(C(F)(F)F)c1 | 2.74
76 | CCOC(=O)CN1CCN(c2ccc(F)cc2)CC1 | 0.605
77 | Cc1cc(C)c2c(O)nc(SCC(=O)NCCc3ccccc3)nc2n1 | -3.21
78 | COc1cccc2ccc(=O)n(C)c12 | -4.01

Row | Structure (SMILES) | % Inhibition @ 10 uM [%]
79 | O=C(Cn1cnc2onc(-c3ccc(F)cc3)c2c1=O)NCC1CCCO1 (stereo not drawn) | -4.36
80 | Cc1nc2c3cccnc3nn2c(C)c1CCC(=O)N1CCN(Cc2ccc3c(c2)OCO3)CC1 | 3.2
81 | Cc1ccc(OCCCCc2c(C)n[nH]c2C)cc1 | -2.12
82 | Cc1ccc(NC(=O)C2CCN(S(=O)(=O)c3ccc4nc(O)ccc4c3)CC2)nc1 | -4.68
83 | O=C(NCCCN1CCOCC1)c1ccc(CN2C(=O)CCn3nccc32)cc1 | 1.72
84 | N#Cc1sc2nc(-c3ccc4c(c3)OCO4)ccc2c1N | -2.45
85 | CC1CC(C)CN(c2nnc(N)s2)C1 (stereo not drawn) | -1.99
86 | O=C(CCn1c(=O)c2cccn2c2cccnc21)NCc1ccccn1 | -2.44
87 | Cc1ccc(C(=O)NC(C)C2CC3CCC2C3)s1 (stereo not drawn) | 1.64
88 | Cc1[nH]c2ccc(C(=O)N3CCCCCC3)cc2c1C | 0.0489
89 | COc1ccc(S(=O)(=O)NCC2CCCO2)cc1-c1nnc2c3ccccc3c(C)nn12 (stereo not drawn) | -4.78
90 | COc1cccc(C(=O)N2CCN(C(=O)c3cc(OC)c(OC)c(OC)c3)CC2)c1 | -7.93
91 | Oc1c2c(nc3nncn13)-c1ccccc1CC21CCCCC1 | -3.77
92 | CC(C)(C)NC(=O)c1ccc(COc2ccc(Cl)cc2Cl)o1 | 5.3
93 | CCc1ccc(C2C(C#N)=C(N)OC3=C2C(=O)CC(C)(C)C3)s1 (stereo not drawn) | -0.941
94 | Cc1cc(-c2ccc(C)c(S(=O)(=O)NCC3CCCO3)c2)on1 (stereo not drawn) | -0.257
95 | COc1ccc(/C=C2\SC(N3CCCC3)=NC2=O)cc1 | -2.8
96 | COCc1cc(C)c2c(N)c(C#N)sc2n1 | 2.8
97 | CCOC(=O)Nc1sc(NS(=O)(=O)c2ccc(C)cc2)nc1C | -3.75
98 | Cc1cc2oc(=O)cc(O)c2c(=O)o1 | 0.162
99 | Cc1cc(Cl)ccc1N(CC(=O)Nc1ccc(F)cc1)S(C)(=O)=O | -2.86
100 | COc1ccc(Nc2c(C#N)c(C)nn2-c2ccccc2)cc1 | -2.2
101 | O=C(Nc1ccc(Cl)cc1)Nc1ccccc1OC(F)F | 3.42
102 | CC(C)C(NC(=O)C(NC(=O)C1O[C@@H]2OC(C)(C)O[C@@H]2[C@H]2OC(C)(C)O[C@@H]12)C(C)C)C(=O)O (stereo partly drawn) | 0.193
